B1: PhoQ; a variant is named by its letters at X, in order, P23837 (parent)
chain: MKKLLRLFFPLSLRVRFLLATAAVVLVLSLAYGMVALIGYSVSFDKTTFRLLRGESNLFYTLAKWENNKLHVELPENIDKQSPTMTLIYDENGQLLWAQRDVPWLMKMIQPDWLKSNGFHEIEADVNDTSLLLSGDHSIQQQLQEVREDDDDAEMTHSVAVNVYPATSRMPKLTIVVVDTIPVELKSSYMVWSWFIYVLSANLLLVIPLLWVAAWWSLRPIEALAKEVRELEEHNRELLNPATTRELTSLVRNLNRLLKSERERYDKYRTTLTDLTHSLKTPLXXLQXXLRSLRSEKMSVSDAEPVMLEQISRISQQIGYYLHRASMRGGTLLSRELHPVAPLLDNLTSALNKVYQRKGVNISLDISPEISFVGEQNDFVEVMGNVLDNACKYCLEFVEISARQTDEHLYIVVEDDGPGIPLSKREVIFDRGQRVDTLRPGQGVGLAVAREITEQYEGKIVAGESMLGGARMEVIFGRQHSAPKDE

This is one part of the list.

In this assay the parent is B1. Description: enrichment ratio after two sorts for PhoP signalling (ratio (wild type AVST 3.29)); higher = more functional. As to conditions: with PhoP (E. coli).
For the variant NWIP, the enrichment ratio is ≤ 0.25.

As for MPWF, the enrichment ratio is ≤ 0.25.

On to NRYR, for which the enrichment ratio is ≤ 0.25.

For LQRC, the enrichment ratio was ≤ 0.25.

For the variant MHGL, the enrichment ratio was ≤ 0.25.

In the case of KPFL, the enrichment ratio is ≤ 0.25.

As for SDHR, the enrichment ratio is ≤ 0.25.

Regarding NLLK, the enrichment ratio was ≤ 0.25.

As to QCYQ, the enrichment ratio was 6.25.

Regarding DKKT, the enrichment ratio was ≤ 0.25.

With STMF, the enrichment ratio was determined as 11.1.

Regarding EKEW, the enrichment ratio was ≤ 0.25.

ERGK: the enrichment ratio was ≤ 0.25.

For PYWK, the enrichment ratio is ≤ 0.25.

Take KMFF: the enrichment ratio was ≤ 0.25.

As for SARN, the enrichment ratio is ≤ 0.25.

As to RCSP, the enrichment ratio was ≤ 0.25.

Take GISE: the enrichment ratio came to 4.03.

For DVFL, the enrichment ratio is ≤ 0.25.

As for HCMR, the enrichment ratio was ≤ 0.25.

Regarding FGGI, the enrichment ratio is ≤ 0.25.

For KVAD, the enrichment ratio is ≤ 0.25.

As for IMGY, the enrichment ratio is ≤ 0.25.

Turning to WDMF, the enrichment ratio was ≤ 0.25.

VCHW: the enrichment ratio was ≤ 0.25.

Take HEVW: the enrichment ratio was ≤ 0.25.

On to HWNN, for which the enrichment ratio was ≤ 0.25.

Turning to YFNM, the enrichment ratio was ≤ 0.25.

In the case of VTTR, the enrichment ratio is ≤ 0.25.

Consider NQNC, for which the enrichment ratio is ≤ 0.25.

Turning to VNQW, the enrichment ratio is ≤ 0.25.

For the variant HSKH, the enrichment ratio was ≤ 0.25.

For the variant FQYW, the enrichment ratio is ≤ 0.25.

Consider DKAF, for which the enrichment ratio is ≤ 0.25.

Consider YLFH, for which the enrichment ratio is ≤ 0.25.

With ASEA, the enrichment ratio is ≤ 0.25.

In the case of IRRR, the enrichment ratio is ≤ 0.25.

As for NRQP, the enrichment ratio was ≤ 0.25.

Turning to LPWT, the enrichment ratio is ≤ 0.25.

Consider GEDC, for which the enrichment ratio was ≤ 0.25.

DCAN: the enrichment ratio is ≤ 0.25.

For STSK, the enrichment ratio worked out at 0.472.

As to ICAG, the enrichment ratio is ≤ 0.25.

SQII: the enrichment ratio was 7.34.

On to RNVF, for which the enrichment ratio was ≤ 0.25.

Take FYKT: the enrichment ratio was ≤ 0.25.

Regarding KEVC, the enrichment ratio was ≤ 0.25.

Take MRVR: the enrichment ratio was ≤ 0.25.

On to GMSS, for which the enrichment ratio is 1.08.

As for PNKP, the enrichment ratio is ≤ 0.25.

PCKL: the enrichment ratio is ≤ 0.25.

Regarding GCCD, the enrichment ratio was ≤ 0.25.

As to VTKR, the enrichment ratio is ≤ 0.25.

In the case of QITH, the enrichment ratio was ≤ 0.25.

For KVPT, the enrichment ratio is ≤ 0.25.

Take EKPF: the enrichment ratio was ≤ 0.25.

Consider LQCW, for which the enrichment ratio is ≤ 0.25.

Take HVHR: the enrichment ratio is ≤ 0.25.

Consider IWPQ, for which the enrichment ratio was ≤ 0.25.

For LRHM, the enrichment ratio was ≤ 0.25.

For the variant HPTR, the enrichment ratio was ≤ 0.25.

In the case of VSHA, the enrichment ratio was ≤ 0.25.

As to QARF, the enrichment ratio was ≤ 0.25.

For TIRQ, the enrichment ratio was ≤ 0.25.

For the variant EPDK, the enrichment ratio was ≤ 0.25.

For the variant PLVI, the enrichment ratio was ≤ 0.25.

In the case of GFSI, the enrichment ratio was ≤ 0.25.

On to QMEP, for which the enrichment ratio was ≤ 0.25.

With RNTS, the enrichment ratio was ≤ 0.25.

On to YLRL, for which the enrichment ratio was ≤ 0.25.

In the case of TWYN, the enrichment ratio was ≤ 0.25.

On to HHNE, for which the enrichment ratio was ≤ 0.25.

For SIEL, the enrichment ratio was ≤ 0.25.

On to DFND, for which the enrichment ratio is ≤ 0.25.

As to AGQG, the enrichment ratio is ≤ 0.25.

On to ILGL, for which the enrichment ratio is ≤ 0.25.

For the variant RMHD, the enrichment ratio was ≤ 0.25.

On to REYV, for which the enrichment ratio is ≤ 0.25.

With PECR, the enrichment ratio is ≤ 0.25.

GQYF: the enrichment ratio is ≤ 0.25.

In the case of HEFA, the enrichment ratio was ≤ 0.25.

With EEVP, the enrichment ratio is ≤ 0.25.

Consider DGCG, for which the enrichment ratio is ≤ 0.25.

For the variant LCNN, the enrichment ratio is ≤ 0.25.

Regarding FLTG, the enrichment ratio was ≤ 0.25.

For LKYT, the enrichment ratio came out at 0.284.

Turning to ILAL, the enrichment ratio is ≤ 0.25.

With DDEN, the enrichment ratio is ≤ 0.25.

For SMWH, the enrichment ratio was ≤ 0.25.

DPFS: the enrichment ratio was ≤ 0.25.

As to TLCM, the enrichment ratio amounted to 1.06.

As to WGEP, the enrichment ratio was ≤ 0.25.

For PCEA, the enrichment ratio was ≤ 0.25.

IEGC: the enrichment ratio is ≤ 0.25.

Turning to HPIF, the enrichment ratio is ≤ 0.25.

In the case of ITPN, the enrichment ratio is ≤ 0.25.

As to VEGC, the enrichment ratio was ≤ 0.25.

SGLC: the enrichment ratio was found to be 20.7.

As for YISS, the enrichment ratio came out at 0.549.

In the case of MTHD, the enrichment ratio was ≤ 0.25.

Take IDLE: the enrichment ratio was ≤ 0.25.

With IQFY, the enrichment ratio was ≤ 0.25.

Consider PIGY, for which the enrichment ratio is ≤ 0.25.

In the case of SGTI, the enrichment ratio amounted to 16.7.

As to KQIY, the enrichment ratio is ≤ 0.25.

Take SGVD: the enrichment ratio is ≤ 0.25.

For the variant DYKR, the enrichment ratio was ≤ 0.25.

Take YINS: the enrichment ratio was ≤ 0.25.

For KPWR, the enrichment ratio is ≤ 0.25.

For the variant TDCC, the enrichment ratio is 12.6.

Take VAHH: the enrichment ratio worked out at 1.34.

Consider VICS, for which the enrichment ratio is ≤ 0.25.

In the case of GKRF, the enrichment ratio is ≤ 0.25.

For QDFL, the enrichment ratio is ≤ 0.25.

In the case of HGKA, the enrichment ratio was ≤ 0.25.

In the case of ICAW, the enrichment ratio was ≤ 0.25.

On to LMIC, for which the enrichment ratio is ≤ 0.25.

Take KYNK: the enrichment ratio was ≤ 0.25.

Take HQPA: the enrichment ratio is ≤ 0.25.

With KQYD, the enrichment ratio is ≤ 0.25.

In the case of VCYI, the enrichment ratio was ≤ 0.25.

With QLSI, the enrichment ratio stood at 0.721.

HTMI: the enrichment ratio came to 1.06.

For CNHC, the enrichment ratio was ≤ 0.25.

In the case of GWQH, the enrichment ratio was ≤ 0.25.

As to MMHE, the enrichment ratio is ≤ 0.25.

As to IETR, the enrichment ratio is ≤ 0.25.

Regarding PYDI, the enrichment ratio is ≤ 0.25.

In the case of PTTM, the enrichment ratio is ≤ 0.25.

PVIF: the enrichment ratio was ≤ 0.25.

In the case of IRDS, the enrichment ratio was ≤ 0.25.

Turning to RGPC, the enrichment ratio is ≤ 0.25.

Consider HFPT, for which the enrichment ratio was ≤ 0.25.

As to VADV, the enrichment ratio is ≤ 0.25.

On to SVYN, for which the enrichment ratio was 0.341.

On to GEPG, for which the enrichment ratio was ≤ 0.25.

As to VGKC, the enrichment ratio was ≤ 0.25.

Consider PSDF, for which the enrichment ratio was determined as 0.39.

For the variant DHGK, the enrichment ratio is ≤ 0.25.

For LEHF, the enrichment ratio is ≤ 0.25.

As to TEWR, the enrichment ratio was 6.71.

EDFH: the enrichment ratio is ≤ 0.25.

With FDLR, the enrichment ratio is ≤ 0.25.

PKFQ: the enrichment ratio was ≤ 0.25.

Take GGDS: the enrichment ratio was ≤ 0.25.

Turning to WWSQ, the enrichment ratio was ≤ 0.25.

On to LRNW, for which the enrichment ratio is ≤ 0.25.

Turning to AIVD, the enrichment ratio is ≤ 0.25.

Take NWGH: the enrichment ratio is ≤ 0.25.

Take PPVL: the enrichment ratio is ≤ 0.25.

For FQNW, the enrichment ratio was ≤ 0.25.

GQPH: the enrichment ratio is ≤ 0.25.

Regarding ACCL, the enrichment ratio was found to be 9.91.

The values above are taken from a collection of fitness landscapes (doi:10.1126/science.1257360).
